Test results published in the supplement of paper PMC11417369.
Some of the results follow.

What follows are sequences tested on PfSIP2 AP2 domain 1 (GST-tagged) (assay: gcPBM binding intensity (ln(normalized median fluorescence intensity)); higher = stronger DNA binding).
How it was run: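 For binding intensity, the highest Masliner-normalised natural-log median intensity across replicate spots of either probe orientation was taken. Protein bound to the array was stained with Alexa488 anti-GST antibody and scanned at 488 nm. The protein, GST-tagged P. falciparum DNA-binding domains from E. coli at about 25 μg on average, had been applied for 1 h to an Agilent 4 × 180k array of primer-extended double-stranded 36-bp intergenic genomic probes and negative controls.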

Sequence	gcPBM binding intensity (ln)
ATAGTATACAGACACACACACACACCCATATATATA [CACACA_site1736]	7.57
AGGATATAAATATTCACACACACATGGAGATATATA [CACACA_site6317]	6.93
ATACTAAATGAACACACACACATATATATATATAAT [CACACA_site4232]	7.17
AAATAAATATATAATACACACAAAAATATAAAATGG [CACACA_site5943]	7.22
TATAACTTTTTTATTACACACCTATGTAATATTATA [CACACA_site944]	7.01
AACAGACATAGAAACACACATACATACATACATACA [CACACA_site2479]	8.53
ATGTTTTATATTTTTTTTTTGTTTGCTTGTTTCCTC [CACACA_negctrl_site870]	6.81
AAGGGAAATATTGAAACACACACGAACCCACGTATT [CACACA_site252]	6.77
TATATTATAATAAGACGTACAAGGATGTTAAAACTT [XGTACX_site5828]	7.15
TACATTAACGGATTATTTCTCAATACAACATCATTT [CACACA_negctrl_site981]	6.9
GTTTGTATGTCCAAATGTACATATGATTTTATGAAA [XGTACX_site6595]	7.07
AAAAAATATTGAAGTACACACATTATAAACTTTTTT [CACACA_site5029]	6.81
ACCTAATTCAAATACAGTACATATACAATATATATA [XGTACX_site2779]	7.44
AAAATTAAAAATTACTGTACGTATTAGAGAATAAAT [XGTACX_site2567]	7.19
AAAATATTAATTAATACATGCATATATATATATATA [TGCATGCA_site585]	9.66
TATATTGTATAAAAATGTACATGCAATAAATTTAGT [XGTACX_site5621]	7.71
AAAAAATTGACTAATGCACACAATTACATATATATA [CACACA_site1689]	7.86
CAATTTTTCTATCATTGTACTTTTATATAATAGTGT [XGTACX_site1810]	7.15
AATTGTTCTATGATTTGTACACACTTTTTTTTAAAA [XGTACX_site5984]	6.91
ATTATAAATACACGCACACACACTTATATATATATA [CACACA_site5776]	9.26
ATGAAATATATTATATGTACATATTTATTTTTTATA [XGTACX_site7319]	7.07
ATTTTTTACGTATAGTACAAAGTTTTATGATACATA [CACACA_negctrl_site965]	7.01

Sequence	gcPBM binding intensity (ln)
CATTATAAAAAATAAAAAAGAAATAATTGTATATGC [CACACA_negctrl_site478]	7
AAATAGTAAATAAGGGGTACAAAAAAAAAAAAAAAA [XGTACX_site8362]	6.92
AAATGCTAAAAATAGAGTACAGATAACGAAAAGTGT [XGTACX_site8830]	7.53
AAGGAGAAATAAATATTAAAAAATTTATATATATAT [CACACA_negctrl_site1801]	9.06
TAATATTGCAAATATAAAAAAAAATAAACCATATAT [XGTACX_negctrl_site458]	7.18
TTCTTTTTTAACAACAAAAAAAAAAAAAAAAAAAAA [TGCATGCA_negctrl_site87]	7.04
TTTTTTGCTTTCAACACACATACAATCTATATAATC [CACACA_site4125]	7.21
TAAACCTGTAGAGATGCATGCATTGTTAACATGGTG [TGCATGCA_site515]	6.85
AAATTATAAATAATTTGTACATAAAAATTGGTAAAG [XGTACX_site5197]	7.13
ACATGTGAAGGGAACATAAATTGGGGTTTTATATTG [XGTACX_negctrl_site508]	6.99
GAATATAAAAAAGAATGTACTTGAACAGTCCTAAAA [XGTACX_site745]	6.46
TTTTTTATATTAAATGAAGAATATACAAAATTTTAA [CACACA_negctrl_site558]	6.92
TTTTGTTAGTTTTTTTTCTTATATTACATTTTCACG [CACACA_negctrl_site1466]	6.82
ATGTAGTCTCAAGACTGTACAAACAAGTAAATAAAA [XGTACX_site4120]	6.74
ACAATTTTATTTAAAGTGCATGTAAAATTAAAACTT	9.79
TATACATTTATGTACACACACATATATGTATATTTA [CACACA_site2966]	6.84
AATAAATATCAATACACACACACAAAAGTGAATAAA [CACACA_site3763]	6.99
AAAGGAAGAAAAAATAGTACATATATATATATATAA [XGTACX_site766]	7.36
TCCATCCACATATATGTACACACATATATATATATA [CACACA_site8970]	9.43
GTTAAGGGTATATATACACACATATGTAATACATGA [CACACA_site5650]	6.98
AAAATTTCAATAAATACACACATATATATATATATT [CACACA_site1685]	7.07
AAATAATATATGAATGCACACAGTAAAAATTAAAGA [CACACA_site2252]	8.05

Sequence	gcPBM binding intensity (ln)
AAGATTAATATTTTATGTACATATGTAATATATATG [XGTACX_site4367]	7
ATATTTTTATGATGTATCCAAGAAATGGAACTATAT [CACACA_negctrl_site1268]	6.86
AAGAATACACCACGCACACACACTTGAGAAAAAATA [CACACA_site3828]	7.3
ATATATACCTAAGACACACACATATAGATTTATATA [CACACA_site6498]	7.11
TTCTTTGTGGTATAGATACACACTATATTAATATGA [CACACA_site2150]	7.17
ATTTTAGATATCCTGCGTACACAAATTGCTTTATTT [XGTACX_site7149]	7.16
TATCTTATTTTAAAAGTGCATGGAAAGGGGTTTTTG	7.73
TGTATAAGTGCCGTTATACACACGTTATATAAATAT [CACACA_site438]	7.07
ATAAATTTATATACTTGTACATATATATATTACATA [XGTACX_site6697]	7.19
TATATATACATATACACACACACACCCATATATATA [CACACA_site2246]	7.49
TTTGAAATAAAAAGGTGTACACTCGATTAATAAATA [XGTACX_site6943]	7.38
ACTATCATTTTTTTAACACACAAAAAAAATAAAATA [CACACA_site3519]	7.33
TTTTAGCACTTATTATAAGATATCAAAAAGATGGGT [XGTACX_negctrl_site325]	7.32
TTATAAAAATAATATCGTACAAATGATAAAGATTAA [XGTACX_site4893]	6.77
TGAATTCGTCAAAAGCGTACATATAATATCTTCTTG [XGTACX_site8842]	6.99
ACATATATATATATATATAATATTTTATATTTATTA [CACACA_negctrl_site713]	7.49
ATATTTTTTTATAAATGTACAAAAATAATATTGCAT [XGTACX_site7399]	7.02
CCATTTACCCTTGCCATGCACACTTTTTTATAGAAA [CACACA_site3505]	7.68
AAAATAATGTTTATATGTACATATATATATATATAT [XGTACX_site8815]	9.05
TATATAGTAATATATACACACACTTGTCTTGTAAAA [CACACA_site990]	6.9
TTTTTATTTAATATTTTAAAAAAAAATCATTTTTAA [XGTACX_negctrl_site207]	6.49
TCATTTTATTATTCTACACACTTATCTATAATTACA [CACACA_site6168]	7.29

Sequence	gcPBM binding intensity (ln)
TTACATGTACAAAAGTTGCACTTCATACACTTTTAT	8.16
ATTCTATATATGTGCACACAAAAGATATATATATAT [CACACA_site2124]	9.79
CGAAGGTTTGGCCATGCATGTTATAAGAATATATGT [TGCATGCA_site441]	6.87
TCATTTCAATACACAAGTACGTATATGGTTATATTG [XGTACX_site6021]	6.99
AATATAAAATAATGCACACATAAACAAAAAATCAAA [CACACA_site1371]	7.43
TTTCCAAATTGTTGACGGACACTCACGAATAGTTAT [XGTACX_site5720]	6.92
CATATGTATATGACTACACACAAGGGTGTACATATA [CACACA_site1164]	6.86
ACATGAAGATATTTTTGTCCGTACAAATTCATATGA [XGTACX_site1837]	6.93
AGTATATCAAAATACATACACACATTTGTATATACA [CACACA_site2697]	6.96
TACGTTATGTTGAATAGTACAATTTGGTGAACAGGT [XGTACX_site1729]	7.51
GTCCTCATCCACTATGCACACAAAAAAGAAATACAC [CACACA_site9131]	8.48
TTTTTTTTTTTTTTTTGTACACAAATTTATTGTCTA [XGTACX_site2680]	7.01
TTTACATCCAAAAACTGTACACTTATTTTATAATTC [XGTACX_site5332]	7.36
ATATATATAATATGTAGTACTTTCCTCTCAAATCAT [XGTACX_site7766]	7.42
ATCAAAAATATAAAAAATATAAACAATTTATTATCA [CACACA_negctrl_site768]	6.65
GAATCATATTTAAACACACATACATATATATATATA [CACACA_site3352]	8.82
AATAAGTAACAAAATACACACATATATATAATTATA [CACACA_site1837]	6.93
TTCATTATTATTAACATACACACGTGTTATATACAC [CACACA_site4112]	7.11
TTTTTACTATAATTAAAATTAACAAAAGAAAATGAT [GTGCAC_negctrl_site52]	7.15
AAAAAATACAAGAAATGTACTCAAGCATATATTAAT [XGTACX_site3325]	6.92
TTCATTTTTTAAGCATCACACACGAAAGAACAAAGT [CACACA_site1122]	7.69
TTTAATAATATAATGTGTACTTAAAAATTTATATAT [XGTACX_site5821]	7.23
